From article PMC4336329 (PLoS ONE, 2015)
Out of some 310,000 compounds screened, about 2,200 (0.71%) showed an effect of 50% or more. The effect is printed as a negative number. The list shows a part of the results.

What follows are compounds tested against human ether-à-go-go-related gene (hERG) potassium channel (human, UniProt Q12809) (assay: primary screen, population patch clamp on CHO cells stably expressing hERG).
human ether-à-go-go-related gene (hERG) potassium channel, sequence (Q12809 whole entry, looked up): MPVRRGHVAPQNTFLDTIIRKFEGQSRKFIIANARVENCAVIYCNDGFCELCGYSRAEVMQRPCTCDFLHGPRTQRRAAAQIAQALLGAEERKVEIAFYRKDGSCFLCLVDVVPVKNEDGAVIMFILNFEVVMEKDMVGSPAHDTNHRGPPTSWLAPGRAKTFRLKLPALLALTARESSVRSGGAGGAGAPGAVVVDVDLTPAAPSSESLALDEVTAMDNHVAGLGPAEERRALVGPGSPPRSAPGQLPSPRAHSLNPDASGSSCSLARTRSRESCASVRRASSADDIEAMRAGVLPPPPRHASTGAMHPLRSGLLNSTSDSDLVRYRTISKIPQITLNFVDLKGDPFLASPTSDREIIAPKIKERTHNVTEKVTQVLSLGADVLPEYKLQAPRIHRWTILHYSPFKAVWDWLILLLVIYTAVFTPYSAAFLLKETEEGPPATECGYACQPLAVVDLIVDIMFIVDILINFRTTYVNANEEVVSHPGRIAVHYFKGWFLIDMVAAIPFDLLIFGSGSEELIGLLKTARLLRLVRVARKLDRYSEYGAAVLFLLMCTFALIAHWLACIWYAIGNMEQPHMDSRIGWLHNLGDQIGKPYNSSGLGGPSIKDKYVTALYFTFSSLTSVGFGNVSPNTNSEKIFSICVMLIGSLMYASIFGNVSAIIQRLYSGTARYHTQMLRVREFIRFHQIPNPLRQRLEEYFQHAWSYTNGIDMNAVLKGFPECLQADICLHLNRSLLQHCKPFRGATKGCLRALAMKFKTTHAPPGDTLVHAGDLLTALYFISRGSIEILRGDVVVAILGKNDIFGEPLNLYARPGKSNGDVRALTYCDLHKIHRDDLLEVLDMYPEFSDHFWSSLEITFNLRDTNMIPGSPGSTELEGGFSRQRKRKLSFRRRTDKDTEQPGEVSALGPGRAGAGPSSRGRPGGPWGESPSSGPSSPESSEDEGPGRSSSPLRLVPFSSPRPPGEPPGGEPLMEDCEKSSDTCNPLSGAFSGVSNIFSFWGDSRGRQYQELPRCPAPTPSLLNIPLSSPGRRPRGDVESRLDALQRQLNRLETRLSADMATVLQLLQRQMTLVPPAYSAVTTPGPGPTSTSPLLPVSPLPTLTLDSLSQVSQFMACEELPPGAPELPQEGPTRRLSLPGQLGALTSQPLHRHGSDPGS

Going from `CCOC(=O)CNc1nc(Cl)nc(Nc2ccc(Cl)cc2)n1` to `Cc1ccsc1CNn1cnnc1SCc1ccc(Cl)cc1`, the “hERG current change (%, negative = inhibition) at 1uM” value rises from 13.1% to 16.7%.

Compared with `CSc1ccc(/C=C(\NC(=O)c2ccccc2)C(=O)NCCN2CCOCC2)cc1`, `CCN1CCCC1CNC(=O)c1ccc(Sc2ccc(F)cc2)c([N+](=O)[O-])c1` (stereo not shown) is higher in “hERG current change (%, negative = inhibition) at 1uM” value: -44.3% for the first, -19.8% for the second.

Compared with `CCCCc1c(O)n2c(nc3ccccc32)[nH]c1=O`, `CCc1c(C)c2c(C)nn(-c3ccccc3)c2[nH]c1=O` is lower in “hERG current change (%, negative = inhibition) at 1uM” value: 15.9% for the first, -2.21% for the second.

Compared with `C=CCN(c1cccc(C(F)(F)F)c1)S(=O)(=O)c1cccc(C(=O)OCC(=O)NCCC)c1`, `CCOc1cc(C(=O)N(C)CC(=O)Nc2cccc3ccccc23)ccc1OC` is lower in “hERG current change (%, negative = inhibition) at 1uM” value: 8.97% for the first, 6.42% for the second.

Compared with `Cc1ccn(CC(=O)N2CCCC(N3CCN(c4cccc(Cl)c4)CC3)C2)n1` (stereo not shown), `CC(C)(C)OC(=O)N1CCC[C@H]1c1nnc(SCc2cccc(Cl)c2)o1` is higher in “hERG current change (%, negative = inhibition) at 1uM” value: 4.88% for the first, 16.1% for the second.

Going from `COC(=O)[C@@H](Cc1ccc(O)cc1)NC(=O)[C@H]1CCC(=O)N1C(=O)OCc1ccccc1` to `COc1ccc(CNC(=O)C2(CC3CC(c4ccccc4)=NO3)CCN(C(=O)Cc3ccc(F)cc3)CC2)cc1` (stereo not shown), the “hERG current change (%, negative = inhibition) at 1uM” value rises from 4.43% to 12.8%.

Compared with `CCn1c(CSc2nc3ccccc3s2)nnc1SCC(=O)c1ccc(Cl)cc1`, `O=C(O)c1ccc(CSc2ncnc3c2cnn3Cc2ccccc2)cc1` is higher in “hERG current change (%, negative = inhibition) at 1uM” value: 8.76% for the first, 13.9% for the second.

Going from `O=C(c1ccccc1F)N(Cc1ccc2c(c1)OCO2)Cc1cc2cc3c(cc2n2nnnc12)OCO3` to `CC1CN(c2ccccc2)CCN1C(=O)c1cc(COc2c(F)cccc2F)on1` (stereo not shown), the “hERG current change (%, negative = inhibition) at 1uM” value rises from -0.352% to 7.17%.

Compared with `O=C(Nc1ccccc1C(=O)N1CCNCC1)c1ccco1`, `COc1ccccc1OCc1csc(NC(=O)c2ccco2)n1` is lower in “hERG current change (%, negative = inhibition) at 1uM” value: 2.27% for the first, -8.35% for the second.

Compared with `CC1CCCCN1CCCNC(=O)c1cc(Br)c(Br)[nH]1` (stereo not shown), `COc1ccc(S(=O)(=O)N2CCOC2CNC(=O)C(=O)NCCCN(C)C)cc1C` (stereo not shown) is higher in “hERG current change (%, negative = inhibition) at 1uM” value: -42.1% for the first, -2.58% for the second.

Compared with `CO/N=C/C(C#N)=C/c1ccc(OC)cc1`, `CN(C)C(=O)COc1ccc(C(=O)/C=C/c2cccnc2)cc1` is lower in “hERG current change (%, negative = inhibition) at 1uM” value: 15.4% for the first, 15.1% for the second.

Going from `CCCCNC(=O)Cn1cnc2sc(C)c(S(=O)(=O)N3CCN(c4ccccc4OC)CC3)c2c1=O` to `COc1ccccc1NS(=O)(=O)c1cc(NC(=O)c2sccc2C)ccc1N1CCCC1`, the “hERG current change (%, negative = inhibition) at 1uM” value rises from 15% to 15.8%.

Compared with `Cc1cc(OCC(=O)N(Cc2ccco2)C2CCS(=O)(=O)C2)cc(C)c1Cl` (stereo not shown), `COc1cccc(NC(=O)CN(C)CC(=O)NCc2ccco2)c1` is higher in “hERG current change (%, negative = inhibition) at 1uM” value: 7.06% for the first, 11.7% for the second.

Going from `CC(=O)Nc1ccccc1Sc1ccc2c3c(cccc13)C(=O)N(c1ccc(C)cc1)C2=O` to `Cc1cccc(C(=O)N[C@H](C(=O)OCc2cc(=O)n3c(n2)sc2ccccc23)C(C)C)c1`, the “hERG current change (%, negative = inhibition) at 1uM” value rises from 9.83% to 12.5%.

Going from `O=C1CCC(C(=O)N2CCOCC2)CN1Cc1cccc(C(F)(F)F)c1` (stereo not shown) to `CC(C)C(Nc1ccc(C(F)(F)F)cc1[N+](=O)[O-])C(=O)O` (stereo not shown), the “hERG current change (%, negative = inhibition) at 1uM” value falls from 12.8% to -3.09%.

Going from `Cc1nn(Cc2ccccc2)c2c1C(c1ccco1)C(C#N)=C(N)O2` (stereo not shown) to `Cc1nc(=O)c(-c2ccccc2)c(C)n1CCCO`, the “hERG current change (%, negative = inhibition) at 1uM” value rises from 6.11% to 10.8%.

Compared with `Cc1nc(N2CCN(c3ccccn3)CC2)c2c(C)c(C(=O)Nc3c(F)cc(F)cc3Br)sc2n1`, `COc1cc(OC)cc(-c2cc3nc4c(c(N5CCN(c6ncccn6)CC5)n3n2)CCCC4)c1` is higher in “hERG current change (%, negative = inhibition) at 1uM” value: 11.9% for the first, 12.6% for the second.

Going from `CN1CCCN(S(=O)(=O)c2ccccc2)CC1.Cl` to `Cn1cccc1/C=C1\CCc2ccccc2C1=O`, the “hERG current change (%, negative = inhibition) at 1uM” value rises from -2.23% to 8.49%.

Compared with `CN(Cc1c(C(=O)N2CCc3ccccc3C2)nc2ccc(Cl)cn12)C(C1CC1)C1CC1`, `O=C(NC1CCN(C(=S)Nc2ccc(Cl)cc2)CC1)C1CCCCC1` is higher in “hERG current change (%, negative = inhibition) at 1uM” value: 12.9% for the first, 16.6% for the second.

Compared with `O=S(=O)(c1ccc2ccccc2c1)n1cccn1`, `O=C(COc1ccc2ccccc2c1)N1CCN(C(=O)c2cccs2)CC1` is lower in “hERG current change (%, negative = inhibition) at 1uM” value: 7.75% for the first, -14.7% for the second.

Going from `COc1ccc(NC(=O)c2ccc(NCC3CCCO3)c([N+](=O)[O-])c2)cc1` (stereo not shown) to `CCN1CCN(Cc2ccc(NC(=O)c3cc(NC(=O)c4ccc5n[nH]nc5c4)cc(OC)c3)cc2C(F)(F)F)CC1`, the “hERG current change (%, negative = inhibition) at 1uM” value rises from 2.95% to 23.4%.

First: COc1ccccc1S(=O)(=O)CC(O)COc1ccccc1Cl (stereo not shown)
Second: COc1ccc(CNC(=O)Cn2c(=O)oc3ccccc32)cc1OC
The “hERG current change (%, negative = inhibition) at 1uM” value of the first is higher: 9.79% for the first, -1.21% for the second.

First: COc1ccc(COc2cc(-c3cccc(OC)c3)nc3ccc(NC(=O)c4ccc(OC)cc4)cc23)cc1
Second: COc1ccc(CCNS(=O)(=O)c2ccc(OC)c(OC)c2)cc1OC
The “hERG current change (%, negative = inhibition) at 1uM” value of the first is higher: 15.9% for the first, 6.59% for the second.

Compared with `COC(=O)CNC(=O)c1ccc(=O)oc1`, `O=C(N/C(=C/c1ccco1)C(=O)N1CCCCCC1)c1cccs1` is lower in “hERG current change (%, negative = inhibition) at 1uM” value: 11% for the first, -10% for the second.

Going from `O=[N+]([O-])c1ccc(-c2cn3c(n2)CCC3)cc1` to `Cc1ccc(C2=NC3(CCCC3)NC2=S)cc1`, the “hERG current change (%, negative = inhibition) at 1uM” value rises from 7.15% to 8.96%.

First: Cc1c(C)n2c(SCC(=O)N3CCCCC3)nnc2[nH]c1=O
Second: O=C1NC2(CCCCC2)C(=O)N1Cc1cc(=O)n2ccsc2n1
The “hERG current change (%, negative = inhibition) at 1uM” value of the first is higher: 8.95% for the first, 6.06% for the second.

First: Cc1cc(C)n2nc(CNS(=O)(=O)c3ccc(F)c(C)c3)nc2n1
Second: CSCCC(NC(=O)c1cc([N+](=O)[O-])cc([N+](=O)[O-])c1)c1nc2ccccc2[nH]1 (stereo not shown)
The “hERG current change (%, negative = inhibition) at 1uM” value of the first is higher: 2.42% for the first, -13.6% for the second.

In the case of `C=CCNC(=O)C1CC1(c1ccc(C)cc1)c1ccc(C)cc1` (stereo not shown), the “hERG current change (%, negative = inhibition) at 1uM” value was 8.38%.
